# Source: PMC12820563, “FoxP3 forms a head-to-head dimer in vivo and stabilizes its multimerization on adjacent microsatellites”
# The list shows a part of the results.
# Biological target: T1, MBP-FoxP1dN (Mus musculus, UniProt P58462 326-579)
# T1 sequence: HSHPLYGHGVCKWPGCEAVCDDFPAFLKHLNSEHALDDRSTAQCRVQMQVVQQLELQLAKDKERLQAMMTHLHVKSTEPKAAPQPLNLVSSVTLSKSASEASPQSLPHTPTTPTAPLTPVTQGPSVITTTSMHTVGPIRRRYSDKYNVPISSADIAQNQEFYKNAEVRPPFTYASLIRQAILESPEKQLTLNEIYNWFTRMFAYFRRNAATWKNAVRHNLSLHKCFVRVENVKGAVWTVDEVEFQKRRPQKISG
# Experiment: PD-seq (MBP pull-down with sequencing); 20 mM Tris-HCl pH 7.5, 100 mM NaCl, 1.5 mM MgCl2, 0.4 uM protein, 0.1 uM dsDNA library, 30 min, room temperature, amylose pull-down; high values mean tight binding
# Settings: protein: recombinant; tags: His6-MBP; chain copies: 2; dsDNA, one strand shown
# Summary of the method: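 Mouse FoxP3 or FoxP1 fragment lacking the N-terminus, His6-MBP-tagged and expressed in E. coli, was incubated at 0.4 µM with 0.1 µM Klenow-filled degenerate double-stranded DNA library for 30 min at room temperature in Tris pH 7.5 buffer with NaCl and MgCl2. Complexes captured on amylose resin were washed three times and their DNA sequenced on Illumina. Binding is reads-per-million enrichment of pull-down over input, replicates pooled.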
row,Sequence,binding signal
1,GATGATTGTTCTCCCAGCTGATGAATTTTATGGATCGAGTAAACAAATTTTCCTAATCTTTCTGTTCAAGCGCCATCTAC,0.887 RPM ratio (pull-down/input)
2,GATGATTGTTCTCCCAGCTGATGAATTGCCCGAGTCGAGTAAACAAATTTTCCTAATCTTTCTGTTCAAGCGCCATCTAC,0.845 RPM ratio (pull-down/input)
3,GATGATTGTTCTCCCAGCTGATGAATTCCACTGCTCGAGTAAACAAATTTTCCTAATCTTTCTGTTCAAGCGCCATCTAC,0.743 RPM ratio (pull-down/input)
4,GATGATTGTTCTCCCAGCTGATGAATTGTGGATATCGAGTAAACAAATTTTCCTAATCTTTCTGTTCAAGCGCCATCTAC,1.12 RPM ratio (pull-down/input)
5,GATGATTGTTCTCCCAGCTGATGAATTGCATACATCGAGTAAACAAATTTTCCTAATCTTTCTGTTCAAGCGCCATCTAC,1.37 RPM ratio (pull-down/input)
6,GATGATTGTTCTCCCAGCTGATGAATTAGGGAACTCGAGTAAACAAATTTTCCTAATCTTTCTGTTCAAGCGCCATCTAC,0.86 RPM ratio (pull-down/input)
7,GATGATTGTTCTCCCAGCTGATGAATTGCCGGCGTCGAGTAAACAAATTTTCCTAATCTTTCTGTTCAAGCGCCATCTAC,0.923 RPM ratio (pull-down/input)
8,GATGATTGTTCTCCCAGCTGATGAATTCCGACAATCGAGTAAACAAATTTTCCTAATCTTTCTGTTCAAGCGCCATCTAC,1.08 RPM ratio (pull-down/input)
9,GATGATTGTTCTCCCAGCTGATGAATTTCGTACATCGAGTAAACAAATTTTCCTAATCTTTCTGTTCAAGCGCCATCTAC,1.07 RPM ratio (pull-down/input)
10,GATGATTGTTCTCCCAGCTGATGAATTATTTTATTCGAGTAAACAAATTTTCCTAATCTTTCTGTTCAAGCGCCATCTAC,1.22 RPM ratio (pull-down/input)
11,GATGATTGTTCTCCCAGCTGATGAATTTGGGGCATCGAGTAAACAAATTTTCCTAATCTTTCTGTTCAAGCGCCATCTAC,1.06 RPM ratio (pull-down/input)
12,GATGATTGTTCTCCCAGCTGATGAATTATCTCGATCGAGTAAACAAATTTTCCTAATCTTTCTGTTCAAGCGCCATCTAC,0.93 RPM ratio (pull-down/input)
13,GATGATTGTTCTCCCAGCTGATGAATTGGGAGGGTCGAGTAAACAAATTTTCCTAATCTTTCTGTTCAAGCGCCATCTAC,0.737 RPM ratio (pull-down/input)
14,GATGATTGTTCTCCCAGCTGATGAATTGCCCCATTCGAGTAAACAAATTTTCCTAATCTTTCTGTTCAAGCGCCATCTAC,0.959 RPM ratio (pull-down/input)
15,GATGATTGTTCTCCCAGCTGATGAATTGGGCTAGTCGAGTAAACAAATTTTCCTAATCTTTCTGTTCAAGCGCCATCTAC,0.807 RPM ratio (pull-down/input)
16,GATGATTGTTCTCCCAGCTGATGAATTGAAGACGTCGAGTAAACAAATTTTCCTAATCTTTCTGTTCAAGCGCCATCTAC,0.815 RPM ratio (pull-down/input)

row,Sequence,binding signal
1,GATGATTGTTCTCCCAGCTGATGAATTGAAGTAGTCGAGTAAACAAATTTTCCTAATCTTTCTGTTCAAGCGCCATCTAC,0.816 RPM ratio (pull-down/input)
2,GATGATTGTTCTCCCAGCTGATGAATTTGGTGAGTCGAGTAAACAAATTTTCCTAATCTTTCTGTTCAAGCGCCATCTAC,0.843 RPM ratio (pull-down/input)
3,GATGATTGTTCTCCCAGCTGATGAATTCTCAGGATCGAGTAAACAAATTTTCCTAATCTTTCTGTTCAAGCGCCATCTAC,0.775 RPM ratio (pull-down/input)
4,GATGATTGTTCTCCCAGCTGATGAATTCGATTTGTCGAGTAAACAAATTTTCCTAATCTTTCTGTTCAAGCGCCATCTAC,1.07 RPM ratio (pull-down/input)
5,GATGATTGTTCTCCCAGCTGATGAATTTCAGCGATCGAGTAAACAAATTTTCCTAATCTTTCTGTTCAAGCGCCATCTAC,0.822 RPM ratio (pull-down/input)
6,GATGATTGTTCTCCCAGCTGATGAATTGATATGATCGAGTAAACAAATTTTCCTAATCTTTCTGTTCAAGCGCCATCTAC,1.1 RPM ratio (pull-down/input)
7,GATGATTGTTCTCCCAGCTGATGAATTATCAGGCTCGAGTAAACAAATTTTCCTAATCTTTCTGTTCAAGCGCCATCTAC,0.854 RPM ratio (pull-down/input)
8,GATGATTGTTCTCCCAGCTGATGAATTGTAATCCTCGAGTAAACAAATTTTCCTAATCTTTCTGTTCAAGCGCCATCTAC,0.988 RPM ratio (pull-down/input)
9,GATGATTGTTCTCCCAGCTGATGAATTCCCAGTGTCGAGTAAACAAATTTTCCTAATCTTTCTGTTCAAGCGCCATCTAC,0.817 RPM ratio (pull-down/input)
10,GATGATTGTTCTCCCAGCTGATGAATTCGGTTAATCGAGTAAACAAATTTTCCTAATCTTTCTGTTCAAGCGCCATCTAC,0.879 RPM ratio (pull-down/input)
11,GATGATTGTTCTCCCAGCTGATGAATTGTGGTCATCGAGTAAACAAATTTTCCTAATCTTTCTGTTCAAGCGCCATCTAC,1.18 RPM ratio (pull-down/input)
12,GATGATTGTTCTCCCAGCTGATGAATTTACATCCTCGAGTAAACAAATTTTCCTAATCTTTCTGTTCAAGCGCCATCTAC,1.26 RPM ratio (pull-down/input)
13,GATGATTGTTCTCCCAGCTGATGAATTATAGTAGTCGAGTAAACAAATTTTCCTAATCTTTCTGTTCAAGCGCCATCTAC,0.985 RPM ratio (pull-down/input)
14,GATGATTGTTCTCCCAGCTGATGAATTGGATCAGTCGAGTAAACAAATTTTCCTAATCTTTCTGTTCAAGCGCCATCTAC,0.801 RPM ratio (pull-down/input)
15,GATGATTGTTCTCCCAGCTGATGAATTGGGCAACTCGAGTAAACAAATTTTCCTAATCTTTCTGTTCAAGCGCCATCTAC,0.834 RPM ratio (pull-down/input)
